{"source": "the supplement of paper PMC8728848", "experiment_in_all_cases": "glycan array binding signal (z-score within array); higher = stronger binding", "conditions_in_all_cases": "glycan notation: IUPAC condensed, linker removed; mutation: E41A", "key": {"[1]": {"target": "Fuc(a1-2)Gal6S(b1-3)GlcNAc", "how_it_was_run": "(§1)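 From the Consortium for Functional Glycomics database, 3228 arrays were curated, keeping only those whose protein sequence was available. Binding is given as a within-array Z-score averaged across arrays sharing a protein sequence and across linkers. Negative Z-scores can be read as non-binding.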"}, "[2]": {"target": "Fuc(a1-2)Gal6S(b1-3)GlcNAc6S", "how_it_was_run": "as §1"}, "[3]": {"target": "Fuc(a1-2)Gal6S(b1-4)Glc", "how_it_was_run": "as §1"}, "[4]": {"target": "Fuc(a1-2)Gal6S(b1-4)Glc6S", "how_it_was_run": "as §1"}, "[5]": {"target": "Fuc(a1-2)[Gal(a1-3)]Gal", "how_it_was_run": "as §1"}, "[6]": {"target": "Fuc(a1-2)[Gal(a1-3)]Gal(b1-3)GalNAc", "how_it_was_run": "as §1"}, "[7]": {"target": "Fuc(a1-2)[Gal(a1-3)]Gal(b1-3)GalNAc(b1-3)Gal(a1-4)Gal(b1-4)Glc", "how_it_was_run": "as §1"}, "[8]": {"target": "Fuc(a1-2)[Gal(a1-3)]Gal(b1-3)GlcNAc", "how_it_was_run": "as §1"}, "[9]": {"target": "Fuc(a1-2)[Gal(a1-3)]Gal(b1-3)GlcNAc(b1-2)Man(a1-3)[Fuc(a1-2)[Gal(a1-3)]Gal(b1-3)GlcNAc(b1-2)Man(a1-6)]Man(b1-4)GlcNAc(b1-4)GlcNAc", "how_it_was_run": "as §1"}, "[10]": {"target": "Fuc(a1-2)[Gal(a1-3)]Gal(b1-3)GlcNAc(b1-2)Man(a1-3)[Fuc(a1-2)[Gal(a1-3)]Gal(b1-3)GlcNAc(b1-2)Man(a1-6)]Man(b1-4)GlcNAc(b1-4)[Fuc(a1-6)]GlcNAc", "how_it_was_run": "as §1"}, "[11]": {"target": "Fuc(a1-2)[Gal(a1-3)]Gal(b1-3)GlcNAc(b1-3)GalNAc", "how_it_was_run": "as §1"}, "[12]": {"target": "Fuc(a1-2)[Gal(a1-3)]Gal(b1-3)GlcNAc(b1-6)GalNAc", "how_it_was_run": "as §1"}, "[13]": {"target": "Fuc(a1-2)[Gal(a1-3)]Gal(b1-4)Glc", "how_it_was_run": "as §1"}, "[14]": {"target": "Fuc(a1-2)[Gal(a1-3)]Gal(b1-4)GlcNAc", "how_it_was_run": "as §1"}, "[15]": {"target": "Fuc(a1-2)[Gal(a1-3)]Gal(b1-4)GlcNAc(b1-2)Man", "how_it_was_run": "as §1"}, "[16]": {"target": "Fuc(a1-2)[Gal(a1-3)]Gal(b1-4)GlcNAc(b1-2)Man(a1-3)[Fuc(a1-2)[Gal(a1-3)]Gal(b1-4)GlcNAc(b1-2)Man(a1-6)]Man(b1-4)GlcNAc(b1-4)GlcNAc", "how_it_was_run": "as §1"}, "[17]": {"target": "Fuc(a1-2)[Gal(a1-3)]Gal(b1-4)GlcNAc(b1-2)Man(a1-3)[Fuc(a1-2)[Gal(a1-3)]Gal(b1-4)GlcNAc(b1-2)Man(a1-6)]Man(b1-4)GlcNAc(b1-4)[Fuc(a1-6)]GlcNAc", "how_it_was_run": "as §1"}, "[18]": {"target": "Fuc(a1-2)[Gal(a1-3)]Gal(b1-4)GlcNAc(b1-3)GalNAc", "how_it_was_run": "as §1"}, "[19]": {"target": "Fuc(a1-2)[Gal(a1-3)]Gal(b1-4)GlcNAc(b1-3)[Fuc(a1-2)[Gal(a1-3)]Gal(b1-4)GlcNAc(b1-6)]GalNAc", "how_it_was_run": "as §1"}, "[20]": {"target": "Fuc(a1-2)[Gal(a1-3)]Gal(b1-4)GlcNAc(b1-6)GalNAc", "how_it_was_run": "as §1"}, "[21]": {"target": "Fuc(a1-2)[Gal(a1-3)]Gal(b1-4)[Fuc(a1-3)]Glc", "how_it_was_run": "as §1"}, "[22]": {"target": "Fuc(a1-2)[Gal(a1-3)]Gal(b1-4)[Fuc(a1-3)]GlcNAc", "how_it_was_run": "as §1"}, "[23]": {"target": "Fuc(a1-2)[Gal(a1-3)]Gal(b1-4)[Fuc(a1-3)]GlcNAc(b1-3)GalNAc", "how_it_was_run": "as §1"}, "[24]": {"target": "Fuc(a1-2)[Gal(a1-4)]Gal(b1-4)GlcNAc", "how_it_was_run": "as §1"}, "[25]": {"target": "Fuc(a1-2)[GalNAc(a1-3)]Gal", "how_it_was_run": "as §1"}, "[26]": {"target": "Fuc(a1-2)[GalNAc(a1-3)]Gal(b1-3)GalNAc(a1-3)[Fuc(a1-2)]Gal(b1-4)GlcNAc", "how_it_was_run": "as §1"}, "[27]": {"target": "Fuc(a1-2)[GalNAc(a1-3)]Gal(b1-3)GalNAc(b1-3)Gal(a1-4)Gal(b1-4)Glc", "how_it_was_run": "as §1"}, "[28]": {"target": "Fuc(a1-2)[GalNAc(a1-3)]Gal(b1-3)GlcNAc", "how_it_was_run": "as §1"}, "[29]": {"target": "Fuc(a1-2)[GalNAc(a1-3)]Gal(b1-3)GlcNAc(b1-2)Man(a1-3)[Fuc(a1-2)[GalNAc(a1-3)]Gal(b1-3)GlcNAc(b1-2)Man(a1-6)]Man(b1-4)GlcNAc(b1-4)GlcNAc", "how_it_was_run": "as §1"}, "[30]": {"target": "Fuc(a1-2)[GalNAc(a1-3)]Gal(b1-3)GlcNAc(b1-2)Man(a1-3)[Fuc(a1-2)[GalNAc(a1-3)]Gal(b1-3)GlcNAc(b1-2)Man(a1-6)]Man(b1-4)GlcNAc(b1-4)[Fuc(a1-6)]GlcNAc", "how_it_was_run": "as §1"}, "[31]": {"target": "Fuc(a1-2)[GalNAc(a1-3)]Gal(b1-3)GlcNAc(b1-3)GalNAc", "how_it_was_run": "as §1"}, "[32]": {"target": "Fuc(a1-2)[GalNAc(a1-3)]Gal(b1-3)GlcNAc(b1-6)GalNAc", "how_it_was_run": "as §1"}, "[33]": {"target": "Fuc(a1-2)[GalNAc(a1-3)]Gal(b1-4)Glc", "how_it_was_run": "as §1"}, "[34]": {"target": "Fuc(a1-2)[GalNAc(a1-3)]Gal(b1-4)GlcNAc", "how_it_was_run": "as §1"}, "[35]": {"target": "Fuc(a1-2)[GalNAc(a1-3)]Gal(b1-4)GlcNAc(b1-2)Man", "how_it_was_run": "as §1"}, "[36]": {"target": "Fuc(a1-2)[GalNAc(a1-3)]Gal(b1-4)GlcNAc(b1-2)Man(a1-3)[Fuc(a1-2)[GalNAc(a1-3)]Gal(b1-4)GlcNAc(b1-2)Man(a1-6)]Man(b1-4)GlcNAc(b1-4)GlcNAc", "how_it_was_run": "as §1"}, "[37]": {"target": "Fuc(a1-2)[GalNAc(a1-3)]Gal(b1-4)GlcNAc(b1-2)Man(a1-3)[Fuc(a1-2)[GalNAc(a1-3)]Gal(b1-4)GlcNAc(b1-2)Man(a1-6)]Man(b1-4)GlcNAc(b1-4)[Fuc(a1-6)]GlcNAc", "how_it_was_run": "as §1"}, "[38]": {"target": "Fuc(a1-2)[GalNAc(a1-3)]Gal(b1-4)GlcNAc(b1-3)Gal(b1-4)GlcNAc", "how_it_was_run": "as §1"}, "[39]": {"target": "Fuc(a1-2)[GalNAc(a1-3)]Gal(b1-4)GlcNAc(b1-3)Gal(b1-4)GlcNAc(b1-3)Gal(b1-4)GlcNAc", "how_it_was_run": "as §1"}, "[40]": {"target": "Fuc(a1-2)[GalNAc(a1-3)]Gal(b1-4)GlcNAc(b1-3)GalNAc", "how_it_was_run": "as §1"}, "[41]": {"target": "Fuc(a1-2)[GalNAc(a1-3)]Gal(b1-4)GlcNAc(b1-3)[Fuc(a1-2)[GalNAc(a1-3)]Gal(b1-4)GlcNAc(b1-6)]GalNAc", "how_it_was_run": "as §1"}, "[42]": {"target": "Fuc(a1-2)[GalNAc(a1-3)]Gal(b1-4)GlcNAc(b1-6)GalNAc", "how_it_was_run": "as §1"}, "[43]": {"target": "Fuc(a1-2)[GalNAc(a1-3)]Gal(b1-4)[Fuc(a1-3)]GlcNAc", "how_it_was_run": "as §1"}, "[44]": {"target": "Fuc(a1-2)[GalNAc(a1-3)]Gal(b1-4)[Fuc(a1-3)]GlcNAc(b1-3)GalNAc", "how_it_was_run": "as §1"}, "[45]": {"target": "Fuc(a1-2)[GalNAc(a1-4)]Gal(b1-4)GlcNAc", "how_it_was_run": "as §1"}}, "note": "Some of the results follow."}
{"binder": "CVN-E41G (protein) MHHHHHHENLYFQSGNFSQACYNSAIQGSVLTSTCIRTNGGYNTSSIDLNSVIANVDGSLKWQGSNFIETCRNTQLAGSSELAAECKTRAQQFVSTKINLDDHIAAIDGTLKYE", "values": [{"measurement": "glycan array binding signal (z-score)", "setting": "[1]", "result": -0.059}, {"measurement": "glycan array binding signal (z-score)", "setting": "[2]", "result": 0.125}, {"measurement": "glycan array binding signal (z-score)", "setting": "[3]", "result": -0.221}, {"measurement": "glycan array binding signal (z-score)", "setting": "[4]", "result": 0.18}, {"measurement": "glycan array binding signal (z-score)", "setting": "[5]", "result": -0.234}, {"measurement": "glycan array binding signal (z-score)", "setting": "[6]", "result": -0.12}, {"measurement": "glycan array binding signal (z-score)", "setting": "[7]", "result": -0.239}, {"measurement": "glycan array binding signal (z-score)", "setting": "[8]", "result": -0.205}, {"measurement": "glycan array binding signal (z-score)", "setting": "[9]", "result": 0.579}, {"measurement": "glycan array binding signal (z-score)", "setting": "[10]", "result": 0.64}, {"measurement": "glycan array binding signal (z-score)", "setting": "[11]", "result": -0.2}, {"measurement": "glycan array binding signal (z-score)", "setting": "[12]", "result": -0.21}, {"measurement": "glycan array binding signal (z-score)", "setting": "[13]", "result": -0.04}, {"measurement": "glycan array binding signal (z-score)", "setting": "[14]", "result": -0.223}, {"measurement": "glycan array binding signal (z-score)", "setting": "[15]", "result": -0.085}, {"measurement": "glycan array binding signal (z-score)", "setting": "[16]", "result": -0.072}, {"measurement": "glycan array binding signal (z-score)", "setting": "[17]", "result": 0.501}, {"measurement": "glycan array binding signal (z-score)", "setting": "[18]", "result": -0.234}, {"measurement": "glycan array binding signal (z-score)", "setting": "[19]", "result": -0.139}, {"measurement": "glycan array binding signal (z-score)", "setting": "[20]", "result": -0.201}, {"measurement": "glycan array binding signal (z-score)", "setting": "[21]", "result": -0.145}, {"measurement": "glycan array binding signal (z-score)", "setting": "[22]", "result": -0.15}, {"measurement": "glycan array binding signal (z-score)", "setting": "[23]", "result": -0.211}, {"measurement": "glycan array binding signal (z-score)", "setting": "[24]", "result": -0.175}, {"measurement": "glycan array binding signal (z-score)", "setting": "[25]", "result": -0.219}, {"measurement": "glycan array binding signal (z-score)", "setting": "[26]", "result": -0.202}, {"measurement": "glycan array binding signal (z-score)", "setting": "[27]", "result": -0.265}, {"measurement": "glycan array binding signal (z-score)", "setting": "[28]", "result": -0.168}, {"measurement": "glycan array binding signal (z-score)", "setting": "[29]", "result": 0.063}, {"measurement": "glycan array binding signal (z-score)", "setting": "[30]", "result": 0.724}, {"measurement": "glycan array binding signal (z-score)", "setting": "[31]", "result": -0.034}, {"measurement": "glycan array binding signal (z-score)", "setting": "[32]", "result": -0.189}, {"measurement": "glycan array binding signal (z-score)", "setting": "[33]", "result": -0.206}, {"measurement": "glycan array binding signal (z-score)", "setting": "[34]", "result": -0.228}, {"measurement": "glycan array binding signal (z-score)", "setting": "[35]", "result": -0.133}, {"measurement": "glycan array binding signal (z-score)", "setting": "[36]", "result": -0.07}, {"measurement": "glycan array binding signal (z-score)", "setting": "[37]", "result": 1.61}, {"measurement": "glycan array binding signal (z-score)", "setting": "[38]", "result": -0.206}, {"measurement": "glycan array binding signal (z-score)", "setting": "[39]", "result": -0.123}, {"measurement": "glycan array binding signal (z-score)", "setting": "[40]", "result": -0.218}, {"measurement": "glycan array binding signal (z-score)", "setting": "[41]", "result": -0.169}, {"measurement": "glycan array binding signal (z-score)", "setting": "[42]", "result": -0.149}, {"measurement": "glycan array binding signal (z-score)", "setting": "[43]", "result": -0.183}, {"measurement": "glycan array binding signal (z-score)", "setting": "[44]", "result": -0.167}, {"measurement": "glycan array binding signal (z-score)", "setting": "[45]", "result": -0.221}]}
